Values joined by “and” are separate entries in the source; they are usually repeats but may differ in a detail not shown here. Equal values may be shown once. Hit rate of the full screen: of about 380,000 compounds, about 4,000 (1.1%) were called active. Inconclusive means that the source gave no clear call. Such entries were picked first, then a sample of the others. Calls follow the shape of the dose curve; as a rule, active = well fitted activation curve with a large enough effect; inconclusive = small, poorly fitted or top-dose-only effect; inactive = no such curve, though single readings can be large or run the other way. Potencies of inconclusive entries are doubtful fits and often do not repeat.
Experiment: qHTS Assay to Identify Small Molecule Activators of BRCA1 Expression; also: nearly all actives have a fitted effect of over 80% in size
Details: MCF7-BRCA1-FFLuc reporter, luminescence, 48 h; activation: at 46.1 µM (top of the series), scaled: vehicle 0%, 10 µM genistein 100% unless noted
In short: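 Quantitative HTS in MCF7 cells stably reporting BRCA1 expression via firefly luciferase. Compound treatment lasts 48 h at 37 °C in phenol-red free MEM. Activation is expressed relative to genistein at 10 microM and DMSO.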
Potency is read from the fitted curve at half-maximal effect; tags tell the direction and shape of the fitted curve.

Row | SMILES | activation | Potency
1 | O=C(C1CC1)N1CCc2cc(Br)cc(S(=O)(=O)N3CCN(c4ccccc4F)CC3)c21 | inactive: -3.63% | –
2 | Cc1ccc(CCNC(=O)CN2CCN(Cc3ccc(Cl)cc3)C2=O)cc1 | inactive: 2.61% | –
3 | COc1ccc2[nH]cc(C(=O)CN3CCC(C)CC3)c2c1 | – | inconclusive: 12.6 µM [activator, partial curve, poor fit]
4 | COc1ccc2oc(C(=O)NCC3CCCO3)c(C)c2c1 (stereo not given) | – | inconclusive: 5.01 µM [activator, partial curve, poor fit]
5 | C/C(=N\NC(=O)c1c(C)nc2ccccn12)c1ccc(N2CCOCC2)cc1 | inactive: 13.3% | –
6 | COc1ccc(-c2c(C(C)=O)c(C)nc3sc4c(c23)NC(c2ccccc2)NC4=O)cc1 (stereo not given) | inactive: -15.7% | –
7 | C=CCn1c(C)nc2c(sc3nc4c(cc32)COC(C)(C)C4)c1=O | – | active: 6.31 µM
8 | CCN(CC)c1ccc2cc(C(N)=O)c(=N)oc2c1 | – | inconclusive: 11.2 µM [activator, partial curve, poor fit]
9 | CCC(=O)N1CCc2nc(-c3ccccc3)sc2C1 | – | inconclusive: 10 µM [activator, partial curve, poor fit]
10 | COc1ccc(N/C=C/C(=O)c2ccc(Cl)cc2)cc1 | – | inconclusive: 0.501 µM [activator, full curve, poor fit]
11 | COC(=O)c1ccc(COc2ccc(/C=N/N3CCN(C)CC3)cc2)cc1 | – | inconclusive: 5.62 µM [activator, partial curve, poor fit]
12 | CO/N=C/C(C#N)=C/c1ccc(OC)cc1 | – | inconclusive: 15.8 µM [activator, partial curve, poor fit]
13 | CC(NC(=O)COC(=O)c1cc(NS(=O)(=O)c2ccc(Cl)c([N+](=O)[O-])c2)ccc1O)C1CC2CCC1C2 (stereo not given) | inactive: -91.7% | –
14 | COC(=O)c1c(-c2ccc(F)cc2)csc1NC(=O)c1ccco1 | – | inconclusive: 2.51 µM [activator, full curve, poor fit]
15 | O=C(Nc1cccc([N+](=O)[O-])c1)c1ccn[nH]1 | – | inconclusive: 17.8 µM [activator, partial curve, poor fit]
16 | NS(=O)(=O)c1ccc(CNC(=O)CCSCCC(=O)NCc2ccc(S(N)(=O)=O)cc2)cc1 | inactive: 0.0213% | –
17 | O=C(COc1ccc2ccccc2c1)NC1CC1 | – | inconclusive: 11.2 µM [activator, partial curve, poor fit]
18 | O=[N+]([O-])c1nccn1CC(O)CO (stereo not given) | inactive: 14% | –
19 | CCCOc1cccc(C(=O)Nc2nnn(CCC)n2)c1 | – | inconclusive: 20 µM [activator, single point]
20 | O=C(N/N=C1\CCCc2ccccc21)c1ccccc1Cl | – | active: 10 µM
21 | O=C(Nc1ccc(N2CCOCC2)c(Cl)c1)c1ccc(F)cc1 | – | inconclusive: 6.31 µM [activator, partial curve, poor fit]
22 | O=C(Nc1ccc(Cl)c(Cl)c1)OCc1cncs1 | – | inconclusive: 12.6 µM [activator, partial curve, poor fit]
23 | CCn1c(-c2cc(-c3ccc(C)cc3)nc3ccccc23)n[nH]c1=S | inactive: 12.5% | –

Row | SMILES | activation | Potency
24 | Cc1ccc(NC(=O)CCc2c(C)nn(-c3ccc(N4CCOCC4)nn3)c2C)cc1F | – | inconclusive: 22.4 µM [activator, partial curve, poor fit] and inconclusive: 12.6 µM [activator, partial curve, poor fit]
25 | Cc1ccc2cc3cc(C(=O)NC4CCCCC4)oc3nc2c1 | – | active: 3.98 µM
26 | CCC(=O)Nc1ccc(C(=O)Nc2cccc(C)n2)cc1 | – | active: 2.51 µM
27 | O=C(Nc1cnc2sc3c(n2c1=O)CCCC3)c1ccc(F)cc1 | – | inconclusive: 17.8 µM [activator, partial curve, poor fit]
28 | CCN1CCN(C(c2cccc(OC)c2OC)c2nnnn2Cc2ccco2)CC1 (stereo not given) | inactive: -1.45% | –
29 | COc1ccc(CNC(=O)Nc2cccc(C)c2)cc1 | – | active: 3.16 µM
30 | Clc1ccc(OCc2nc(-c3ccncc3)no2)c(Cl)c1 | – | inconclusive: 1.26 µM [activator, full curve, poor fit]
31 | O=C(NC(=S)Nc1cccnc1Cl)c1ccc(Cl)cc1 | – | inconclusive: 12.6 µM [activator, partial curve, poor fit]
32 | COc1ccc(C2CC(c3ccc4ccccc4c3)=NN2C(=O)COC(=O)C2CCC(=O)N2)cc1 (stereo not given) | – | inconclusive: 0.631 µM [activator, full curve, poor fit]
33 | O=C(Nc1ccc(N2CCOCC2)cc1)c1cccc(-n2cnnc2)c1 | inactive: 16.6% | –
34 | S=C(c1ccc(-c2ccccc2Cl)o1)N1CCCCC1 | – | inconclusive: 2 µM [activator, full curve, poor fit]
35 | COc1ccc(C(C(=O)NCC2CCCO2)N(C(=O)CNC(=O)c2ccco2)c2cc(C)cc(C)c2)cc1OC (stereo not given) | inactive: -0.688% | –
36 | CCCCN1C(=O)CC(Nc2ccc(CC)cc2)C1=O (stereo not given) | – | inconclusive: 17.8 µM [activator, single point]
37 | CC1CCCCC12NC(=O)N(CC(=O)NC(=O)Nc1ccc3c(c1)OCCO3)C2=O (stereo not given) | – | inconclusive: 15.8 µM [activator, partial curve, poor fit]
38 | Cc1ccsc1/C=N/NC(=O)CO | inactive: 1.54% | –
39 | CCc1ccc2c(c1)C(=O)c1ccccc1C2=O | – | inconclusive: 11.2 µM [activator, partial curve, poor fit]
40 | CN(C)C(=O)COc1ccccc1C(=O)OCC(=O)Nc1ccc(Oc2ccc(Br)cc2)cc1 | inactive: 10.9% | –
41 | c1cncc(-c2nc3ccccc3s2)c1 | – | inconclusive: 6.31 µM [activator, full curve, poor fit]
42 | O=C(COc1ccccc1Br)NC(=O)NC1CCCC1 | – | inconclusive: 11.2 µM [activator, partial curve, poor fit]
43 | COc1ccc(NC(=O)c2ccccc2NC(=O)C2CCCO2)cc1 (stereo not given) | – | inconclusive: 17.8 µM [activator, partial curve, poor fit]
44 | COC(=O)c1ccc(C(=O)Nc2ccc(C(C)C)cc2N)cc1 | – | active: 11.2 µM
45 | COc1ccc(N=Cc2c(O)n(-c3cccc(C)n3)c(=O)c3ccccc23)c(OC)c1 | inactive: -14.5% | –
